Some of the results follow.
test system: HSkMC (human skeletal muscle cells); test: cytotoxicity call (relative viability < 0.9); conditions: 10 µM

| Compound | cytotoxicity call |
| --- | --- |
| COc1ccc(S(=O)(=O)N(C)C[C@H]2Oc3c(NC(=O)NC(C)C)cccc3C(=O)N([C@@H](C)CO)C[C@H]2C)cc1 | inactive |
| C[C@H]1CN([C@@H](C)CO)C(=O)c2cc(NC(=O)NC3CCCCC3)ccc2O[C@H]1CN(C)S(C)(=O)=O | inactive |
| Cc1noc(C)c1S(=O)(=O)N(C)C[C@@H]1OCCCC[C@H](C)Oc2ccc(NS(C)(=O)=O)cc2C(=O)N([C@H](C)CO)C[C@@H]1C | inactive |
| C[C@@H]1CN([C@@H](C)CO)C(=O)Cc2cc(NC(=O)Cc3ccccc3)ccc2O[C@@H]1CN(C)Cc1ccc(Cl)c(Cl)c1 | active |
| CC(=O)N1[C@@H]2Cn3c(cccc3=O)[C@H]1[C@@H](C(=O)N1CCc3ccccc3C1)[C@@H]2CO | inactive |
| C[C@H](CO)N1C[C@H](C)[C@@H](CN(C)S(=O)(=O)c2ccc(Cl)cc2)Oc2ccc(NS(=O)(=O)c3cn(C)cn3)cc2CC1=O | inactive |
| Cc1ccc(S(=O)(=O)Nc2ccc3c(c2)C(=O)N([C@@H](C)CO)C[C@@H](C)[C@@H](CN(C)C(=O)Nc2ccc(F)cc2)OCCCC[C@H](C)O3)cc1 | inactive |
| C[C@@H]1CN([C@@H](C)CO)S(=O)(=O)c2ccc(C#Cc3cccnc3)cc2O[C@H]1CN(C)C(=O)Nc1ccc2c(c1)OCO2 | inactive |
| CC(C)NC(=O)N(C)C[C@H]1Oc2ccc(NC(=O)C3CCCCC3)cc2C(=O)N([C@@H](C)CO)C[C@@H]1C | inactive |
| Cc1ccc(S(=O)(=O)N(C)C[C@@H]2OCCCC[C@H](C)Oc3ccc(NC(=O)CCC(F)(F)F)cc3C(=O)N([C@H](C)CO)C[C@H]2C)cc1 | inactive |
